24 compounds from PubChem BioAssay AID1234 (University of Pittsburgh Molecular Library Screening Center, 2008) can be followed below.

This is one part of the list. These are further read-outs of the screen, such as a control signal, another cell line or another target. No call is given for them.

The nature of the test: compounds producing H2O2 with reducing agent – biochemical, 10-point concentration response, NIH library profiling, artefact control for MLSCN library redox annotation, dose response (AID 1234). The note with it: DTT-dependent redox cycling H2O2, phenol red-HRP absorbance; H2O2 generation; at 50 µM; stronger effect = higher value.
On to `Cc1cc(C)c(S(=O)(=O)Nc2cc(SCC(=O)O)c(O)c3ccccc23)cc1C`, for which the activation was -1.47%.
Then `C/C(=N/Nc1ccc(C(=O)O)cc1)c1ccc(O)c(O)c1O`, with -0.76%.
Then `Cc1cc(C)c(S(=O)(=O)/N=C2/C=C(Sc3ncn[nH]3)C(=O)c3ccccc32)cc1C`, with 115%.
To `Cc1ccc(NC2=C/C(=N\S(=O)(=O)c3cccs3)c3ccccc3C2=O)c(C)c1` belongs 94.8%.
For `Cc1ccc(S(=O)(=O)/N=C2/C=C(Sc3ncn[nH]3)C(=O)c3ccccc32)c(C)c1`, the activation came to 127%.
Then `O=C(COC(=O)c1ccccc1OCc1ccccc1Cl)NC1CC1`, with 0.57%.
To `CC(=O)N(/N=C1\Sc2ccccc2C1=O)c1cccc(C)c1` belongs 122%; to `CCC(C)n1c(NC(=O)c2ccccc2)c(C#N)c2nc3ccccc3nc21` (centres undefined), 0.29%; to `O=S(=O)(Nc1c(S(=O)(=O)c2ccccc2)c2nc3ccccc3nc2n1C1CCCCC1)c1ccccc1`, 118%.
Then `Nc1cc2nsnc2cc1Br`, with 0.13%; and `O=S(=O)(Nc1cc2nc3ccccc3nc2n1Cc1ccccc1)c1ccc(Cl)cc1`, with 98.9%.
In the case of `Cc1oc2c(c1C(=O)c1ccc(Cl)cc1)C(=O)C(=O)c1ccccc1-2`, the activation was found to be 78.8%.
Then `COc1cccc(NC(=O)C(OC(=O)c2ccc([N+](=O)[O-])o2)c2ccccc2)c1` (centres undefined), with -1.08%; and `C=CCn1c(Cc2ccc(OC)cc2)nnc1SCC(=O)NCCc1ccccc1`, with -1.19%; and `C=CCn1c(NS(=O)(=O)c2ccccc2)c(S(=O)(=O)c2ccc(C)cc2)c2nc3ccccc3nc21`, with 17.9%.
To `O=C(COC(=O)c1ccc([N+](=O)[O-])s1)Nc1ncc(C(F)(F)F)cc1Cl` belongs 3.25%; to `CCOC(=O)c1c2c(n(C)c1COC)C(=O)C(=O)c1ccc(Br)cc1-2`, 135%.
Take `CC(C)CN(C(=O)COC(=O)c1ccc([N+](=O)[O-])o1)C1CCS(=O)(=O)C1` (centres undefined): the activation worked out at 15.3%.
Then `COc1cccc(Oc2cncnc2-c2ccc(OC)cc2O)c1`, with -1.32%.
Then `CC(=O)N(/N=C1\Sc2ccccc2C1=O)c1ccccc1C`, with 130%; and `CNC1=C(N(C(C)=O)c2ccc(Br)cc2)C(=O)c2ccccc2C1=O`, with 94.2%.
Regarding `CC(=O)C(C(C)=O)C1(O)C(=O)c2ccccc2C1=O`, the activation is -1.5%.
To `Cc1ccc(C)c(S(=O)(=O)Nc2cc(SCC(=O)O)c(O)c3ccccc23)c1` belongs 114%.
Turning to `Cc1oc2c(c1C(=O)c1ccccc1)C(=O)C(=O)c1ccccc1-2`, the activation is -1.56%.
